Potency data for 93 compounds are collected here from PubChem BioAssay AID360 (National Center for Advancing Translational Sciences (NCATS), 2006).

Molecules are shown by their SMILES. Screen size: about 48,000 compounds; about 550 (1.1%) were called active. Roughly 4% stayed inconclusive and do not appear here. Cut-off read from the data, not from the text of the source: active = potency below about 15 µM; inconclusive = mostly about 16 µM to 33 µM; inactive = weaker than that. Some of the results follow.
Potency is the fitted concentration of half-maximal effect.

The assay deals with Lysosomal acid glucosylceramidase (Homo sapiens) (UniProt P04062). Briefly: Glucocerebrosidase.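 Note: the screen sought inhibitors.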 The note with it: purified enzyme, resorufin glucoside fluorescence (screen aimed at inhibitors), 20 min. The method, boiled down: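 Normal human glucocerebrosidase (0.2 nM final) was assayed with resorufin β-D-glucopyranoside (30 uM final) in 50mM citric acid/KH2PO4, 10mM sodium taurocholate, 0.01% tween-20, pH 5.9. Compounds were titrated; fluorescence (Ex 548, Em 600) read after 20 min at RT.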
Chain of UniProt P04062 (P04062 whole entry, looked up): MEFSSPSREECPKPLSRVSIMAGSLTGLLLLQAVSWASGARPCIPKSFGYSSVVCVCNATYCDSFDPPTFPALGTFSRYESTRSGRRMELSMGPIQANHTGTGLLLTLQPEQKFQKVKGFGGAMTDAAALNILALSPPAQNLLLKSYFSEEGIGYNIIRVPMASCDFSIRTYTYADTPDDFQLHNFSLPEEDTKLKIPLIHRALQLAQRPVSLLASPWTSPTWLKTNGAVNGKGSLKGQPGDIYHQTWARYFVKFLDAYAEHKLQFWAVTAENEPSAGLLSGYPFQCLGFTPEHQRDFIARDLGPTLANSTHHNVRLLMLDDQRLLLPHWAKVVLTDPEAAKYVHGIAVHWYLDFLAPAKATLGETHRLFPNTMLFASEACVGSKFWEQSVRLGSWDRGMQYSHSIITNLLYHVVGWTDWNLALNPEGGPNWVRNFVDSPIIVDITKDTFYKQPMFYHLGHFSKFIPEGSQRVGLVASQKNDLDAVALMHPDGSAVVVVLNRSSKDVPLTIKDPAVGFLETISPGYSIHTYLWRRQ
`CCc1nnc(NC(=O)C2CCCN(c3nc4ccccc4s3)C2)s1` (stereo not drawn): the Potency is inactive: > 76.9 µM.
With `COc1cc(OC)cc(C(=O)Nc2ncc3c(n2)CC(C)CC3=O)c1` (stereo not drawn), the Potency was inactive: > 76.9 µM.
On to `O=c1cc(CN2CCc3ccccc32)nc2sccn12`, for which the Potency is inactive: > 76.9 µM.
As for `O=C(c1ccc(S(=O)(=O)Nc2ccccc2)cc1)N1CCOCC1`, the Potency was inactive: > 76.9 µM.
In the case of `c1c2c(cc3sc(N4CCOCC4)nc13)OCO2`, the Potency is inactive: > 76.9 µM.
With `CCOC(=O)Cc1nnc(NC(=O)c2ccccc2OC)s1`, the Potency was inactive: > 76.9 µM.
As to `CCN(CC)C(=O)N1CCC(NC(=O)Cc2ccccc2)CC1`, the Potency is inactive: > 76.9 µM.
For `CCN(Cc1ccccc1)S(=O)(=O)c1ccc(C(=O)Nc2nnc(-c3ccccc3OC)o2)cc1`, the Potency is inactive: > 76.9 µM.
The figure for `CCOC(=O)c1cnc2nc(Cc3ccccc3)[nH]n2c1=O` is inactive: > 76.9 µM.
As for `CCc1nnc(NC(=O)CCC(=O)N2CCN(CCc3ccccc3)CC2)s1`, the Potency is inactive: > 76.9 µM.
The figure for `Cc1c(O)nc(SC2CC(=O)N(c3ccccc3)C2=O)[nH]c1=O` (stereo not drawn) is inactive: > 76.9 µM; for `CC1CC(C)CN(c2nc3c(c(=O)[nH]c(=O)n3C)n2CCCSc2nc3ccccc3s2)C1` (stereo not drawn) it is inactive: > 76.9 µM.
In the case of `O=C(CN1CCN(S(=O)(=O)c2ccc(F)cc2)CC1)Nc1ccc(Cl)c(C(F)(F)F)c1` it was inactive: > 76.9 µM.
Regarding `O=C(c1ccccc1NS(=O)(=O)c1ccc(Br)s1)N1CCCC1`, the Potency is inactive: > 76.9 µM.
With `Cn1cnnc1SCC(=O)Nc1ccccc1Sc1ccccc1`, the Potency is inactive: > 76.9 µM.
As to `Cc1nn(-c2ccccc2)c2c1/C(=N/O)CC(C)(C)C2`, the Potency is inactive: > 76.9 µM.
As for `Nn1c(SCC(=O)Nc2ccc(F)cc2F)nnc1-c1cccnc1`, the Potency is inactive: > 76.9 µM.
Consider `CC(C)N(Cc1nc(-c2ccccc2)no1)C(=O)c1ccc2c(c1)OCO2`, for which the Potency was inactive: > 76.9 µM.
On to `Cc1ccc(C(=O)O)cc1S(=O)(=O)N1CCC(C(=O)O)CC1`, for which the Potency is inactive: > 76.9 µM.
Take `O=C1c2ccccc2C(=O)N1c1ccccc1S(=O)C(F)(F)F` (stereo not drawn): the Potency is inactive: > 76.9 µM.
As to `Cc1ccc(N2C(=O)c3ccc(N)cc3C2=O)cc1`, the Potency was inactive: > 76.9 µM.
Consider `O=C(CN1CCN(c2ccccn2)CC1)NC(=O)NC1CCCCC1`, for which the Potency was inactive: > 76.9 µM.
As to `O=C(C1CCN(S(=O)(=O)c2cnc[nH]2)CC1)N1CCc2ccccc2C1`, the Potency was inactive: > 76.9 µM.
For the compound `CC1=C(C(=O)OCCOC(C)C)C(c2cc3c(cc2Br)OCO3)C2=C(CCCC2=O)N1` (stereo not drawn), the Potency is active: 11 µM.
On to `Cc1cc(C)cc(OCC(=O)NCCN2CCOCC2)c1`, for which the Potency is inactive: > 76.9 µM.
In the case of `CCCc1c(C)c2ccc(OCC(C)=O)cc2oc1=O`, the Potency was inactive: > 76.9 µM.
In the case of `COc1ccc(CC(=O)NCc2ccccc2)cc1S(=O)(=O)N1CCOCC1` it was inactive: > 76.9 µM; in that of `COC(=O)CC1C(=O)NCCN1C(=O)c1ccccc1` (stereo not drawn), inactive: > 76.9 µM.
The figure for `Cc1c(C)[n+](=O)c2c(n1[O-])CCCCC2` is inactive: > 76.9 µM; for `CCCc1nn(C)c2c1C(c1ccncc1)C(C#N)=C(N)O2` (stereo not drawn) it is inactive: > 76.9 µM.
`CS(=O)(=O)N1CCN(C2CCN(Cc3ccccc3)CC2)CC1`: the Potency is inactive: > 76.9 µM.
As to `Cc1nc2nc(CSc3nc4ccccc4s3)cc(=O)n2[nH]1`, the Potency was inactive: > 76.9 µM.
As for `CC1(C)Cc2ccccc2-c2nnc(SCC(=O)N3CCN(c4ccccc4)CC3)n21`, the Potency is inactive: > 76.9 µM.
For the compound `O=c1cnc2ccccc2n1CC1CCCCC1`, the Potency was inactive: > 76.9 µM.
On to `COc1cccc(C=Nc2cc(C)on2)c1O`, for which the Potency is inactive: > 76.9 µM.
Regarding `COc1ccc(-c2ccc(=O)[nH]n2)cc1`, the Potency is inactive: > 76.9 µM.
In the case of `Cc1ccc(Nc2nc(CSc3nnnn3-c3ccccc3)cc(=O)[nH]2)cc1` it was inactive: > 76.9 µM.
In the case of `O=C1c2ccccc2C(=O)N1CCSc1nncs1` it was inactive: > 76.9 µM.
On to `O=C1CC(c2ccco2)c2ccc3ccccc3c2N1` (stereo not drawn), for which the Potency was inactive: > 76.9 µM.
Regarding `COc1ccc2[nH]c(=O)c(CN(Cc3cccnc3)C(=O)Nc3ccccc3)cc2c1`, the Potency is inactive: > 76.9 µM.
The figure for `O=C1c2ccccc2C(=O)N1CCCOc1ccccc1` is inactive: > 76.9 µM; for `CC(CCc1ccco1)NC(=O)Nc1cccc(F)c1` (stereo not drawn) it is inactive: > 76.9 µM; for `COc1cc(CC(=O)OCC(=O)Nc2ncc(Cl)cc2Cl)cc(OC)c1OC` it is inactive: > 76.9 µM.
As for `CS(=O)(=O)N1CCC(C(=O)NCC2CCCO2)CC1` (stereo not drawn), the Potency is inactive: > 76.9 µM.
As for `CCn1c(=O)n(CCOC)c(=O)c2c3c(sc21)CCCC3`, the Potency was inactive: > 76.9 µM.
`Cn1cccc1Cc1nnc(SCC(=O)NCc2ccco2)n1CCc1ccccc1`: the Potency is inactive: > 76.9 µM.
`CCOC(=O)C1CCN(C(=O)CNS(=O)(=O)c2ccc(Br)s2)CC1`: the Potency is inactive: > 76.9 µM.
As for `COC(=O)c1ccccc1NC(=O)c1cc(-c2cccs2)on1`, the Potency was inactive: > 76.9 µM.
In the case of `Cc1cncn1CCc1nc2c3ccccc3nc(=S)n2[nH]1` it was inactive: > 76.9 µM.
In the case of `O=C(NCc1ccco1)Nc1ccc(Br)cc1Cl` it was inactive: > 76.9 µM; in that of `CC(=O)c1ccc(NC(=O)C2CC(c3ccc(F)cc3)=NO2)cc1` (stereo not drawn), inactive: > 76.9 µM.
On to `CCOC(=O)C(C(C)=O)=C1SC2CS(=O)(=O)CC2S1` (stereo not drawn), for which the Potency is inactive: > 76.9 µM.
Take `COc1cccc(C(=O)N(CN2CCCC2=O)c2cccc(Cl)c2)c1`: the Potency is inactive: > 76.9 µM.
The figure for `COc1cccc(-c2noc(C3CCCN(C(=O)Cc4ccccc4)C3)n2)c1` (stereo not drawn) is inactive: > 76.9 µM; for `COc1ccccc1N1CC(O)=C(c2nc3ccccc3s2)C1=N` it is inactive: > 76.9 µM; for `COc1ccc(C2(C(=O)NC(C)C)CCCC2)cc1OC` it is inactive: > 76.9 µM.
The figure for `CSc1nc2ccccc2n1C(=O)NC1CCCCC1` is inactive: > 76.9 µM; for `Nc1c(C(=O)NC2CCCCC2)c2nc3ccccc3nc2n1/N=C/c1ccco1` it is inactive: > 76.9 µM.
With `COc1ccccc1-n1c(=O)oc2ccc(Cl)cc2c1=O`, the Potency is inactive: > 76.9 µM.
`CS(=O)(=O)Nc1ccc2c(c1)nc1n2CCOC1`: the Potency is inactive: > 76.9 µM.
For the compound `O=C(c1ccc2c(c1)[nH]c(=S)n1c3ccccc3nc21)N1CCN(c2ncccn2)CC1`, the Potency is inactive: > 76.9 µM.
Take `CCOC(=O)c1c(NC(=O)CSc2nnc(-c3ccccc3C)n2C)sc(C(C)=O)c1C`: the Potency is inactive: > 76.9 µM.
Turning to `C=C(C)c1cccc(C(C)(C)NC(=O)N2CCN(C)CC2)c1`, the Potency was inactive: > 76.9 µM.
Turning to `O=C(OCc1cc2ccccc2[nH]c1=O)C1CCCO1` (stereo not drawn), the Potency was inactive: > 76.9 µM.
With `CN(C(=O)COC(=O)COc1ccccc1F)C1CCS(=O)(=O)C1` (stereo not drawn), the Potency is inactive: > 76.9 µM.
As for `CCCCCNC(CC(=O)Nc1ccc(OC)cc1)C(=O)O` (stereo not drawn), the Potency is inactive: > 76.9 µM.
Turning to `Cc1ccc(NC(=O)Cn2cccc2)cc1Cl`, the Potency entry is “inactive”.
Regarding `CN(C)C(=O)Cn1c(SCC(=O)NC2CCCCC2)nc2ccccc21`, the Potency was inactive: > 76.9 µM.
Regarding `CCCCCn1c(=S)[nH]c2ncccc2c1=O`, the Potency is inactive: > 76.9 µM.
With `Cc1ccc2cc(-c3noc(C(C)(C)C)n3)c(=O)[nH]c2c1`, the Potency is inactive: > 76.9 µM.
In the case of `CCS(=O)(=O)N1CCC(C(=O)NCCCN2CCCCCC2)CC1` it was inactive: > 76.9 µM.
On to `CC(=O)Oc1cccc(N2C(=O)CC(Nc3ccc(N4CCOCC4)cc3)C2=O)c1` (stereo not drawn), for which the Potency is inactive: > 76.9 µM.
In the case of `CCOC(=O)c1sc(NC(=O)CSc2nc3c(cc2C#N)CCC3)c(C#N)c1C`, the Potency is inactive: > 76.9 µM.
Turning to `Cc1ccc(C)c(N(C(=O)Cn2nnc3ccccc32)C(C(=O)NCc2ccco2)c2ccncc2)c1` (stereo not drawn), the Potency is inactive: > 76.9 µM.
For `Cc1ccc(CS(=O)(=O)CCC(=O)NCCCN2CCCC2)cc1`, the Potency is inactive: > 76.9 µM.
Consider `Cc1c(F)cccc1NC(=O)CCC(=O)O`, for which the Potency was inactive: > 76.9 µM.
As to `Cc1ccc(CNC(=O)COC(=O)c2c(C)noc2C)cc1`, the Potency is inactive: > 76.9 µM.
In the case of `CN(Cc1ccccc1)c1nc2c(c(=O)[nH]c(=O)n2C)n1Cc1ccccc1Cl`, the Potency was inactive: > 76.9 µM.
With `CCc1cc2ccccc2nc1SCC(=O)N1CCN(C(=O)c2ccco2)CC1`, the Potency was inactive: > 76.9 µM.
With `CC1CCCC(NS(=O)(=O)c2ccc3c(c2)OCCO3)C1C` (stereo not drawn), the Potency entry was “inactive”.
In the case of `O=C(c1ccc2c(c1)OCCO2)C1CCN(S(=O)(=O)c2ccc(F)cc2)CC1`, the Potency was inactive: > 76.9 µM.
The figure for `O=C(Nc1nccs1)c1ccc(COc2ccccc2Br)o1` is inactive: > 76.9 µM; for `S=C1SCN(CCN2CCOCC2)CN1Cc1ccccc1` it is inactive: > 76.9 µM.
Turning to `CC1(C)CC(=O)C2=C(C1)N(Cc1ccco1)C(=O)C2(NC(=O)C1CCCCC1)C(F)(F)F` (stereo not drawn), the Potency was inactive: > 76.9 µM.
Turning to `Cc1nc(SCc2nnc(-c3ccc(Cl)cc3)o2)c2c3c(sc2n1)CCC3`, the Potency was inactive: > 76.9 µM.
In the case of `COc1ccc(OCc2nnc(SCC(=O)O)n2N)cc1`, the Potency is inactive: > 76.9 µM.
In the case of `N#CC1=C(N)Oc2n[nH]c(-c3ccncc3)c2C1c1ccsc1` (stereo not drawn), the Potency was inactive: > 76.9 µM.
Consider `Cc1ccc(NC(=O)CSc2nnc(C3CCCCC3)n2N)cc1F`, for which the Potency was inactive: > 76.9 µM.
`C=CCN=C1SCC(=O)N1S(=O)(=O)c1ccccc1`: the Potency was inactive: > 76.9 µM.
For the compound `CCCn1c(SCC(=O)N2CCCCC2)nnc1-c1ccco1`, the Potency was inactive: > 76.9 µM.
As to `CCOC(=O)c1cnn(-c2nc3sc4c(c3c(=O)[nH]2)CCCC4)c1N`, the Potency was inactive: > 76.9 µM.
Take `O=C(NC12CC3CC(CC(C3)C1)C2)C1CCCN1C(=O)NC1CCCCC1` (stereo not drawn): the Potency was inactive: > 76.9 µM.
For the compound `COc1ccc2c(CC(=O)N(C)CC3COc4ccccc4O3)coc2c1` (stereo not drawn), the Potency is inactive: > 76.9 µM.
